# Laboratory results as given in PubChem BioAssay (NCATS).
# Values joined by “and” are separate entries in the source; they are usually repeats but may differ in a detail not shown here. Equal values may be shown once. Inconclusive results, whose numbers are uncertain, are shown with a selection of clear calls. Potencies beside an inconclusive call are fits to weak or partial responses and may not hold up. Some compounds were tested as several samples or in several runs, with calls that do not always agree. Active and inactive are the calls of the source. Calls follow the shape of the dose curve; as a rule, active = well fitted activation curve with a large enough effect in the repeat runs; inconclusive = weak or mixed curves; inactive = flat fitted curve, though single readings scatter.
# Experiment: qHTS assay for small molecule agonists of the antioxidant response element (ARE) signaling pathway measured by Nrf2-dependant transcriptional activity (AID 720636)
# Details: ARE-luc HepG2, Nrf2 luciferase reporter, 16 h; series mostly up to 92.4 µM
# Excerpt: National Center for Advancing Translational Sciences [NCATS] NIH Chemical Genomics Center [NCGC] U.S. Environmental Protection Agency [EPA] National Institutes of Environmental Health Sciences [NIEHS] National Toxicology Program [NTP] Assay Overview: The antioxidant response element (ARE) signaling pathway plays an important role in the cellular anti-oxidant defense. Exposure to stressors which are exogenous like ionizing radiations, chemicals, U-V light, and endogenous like cell signaling, metabolic processes or inflammation, reactive oxygen species (ROS), can induce oxidative stress in the cells. Oxidative stress has been implicated in the pathogenesis of a variety of diseases ranging from cancer to neurodegeneration. ARE-luc HepG2 cell line (Simmons et al., Current Chemical Genomics, 5:1-12, 2011) has been used for identifying the chemicals that induce oxidative stress. The cell line has an Nrf2-responsive luciferase reporter gene that has been engineered to measure Nrf2-dependant transcriptional activity.
# Assay Protocol Summary: For measuring ARE induction; 2,000 ARE-luc HepG2 cells in 5 uL of assay medium containing 1% dialyzed FBS per well were dispensed into white wall/solid bottom 1536-well plates using a Flying Reagent Dispenser (FRD) (Aurora Discovery). The assay plates were incubated for 6 hr at 37 C to allow cell attachment to the well bottom, followed by the transfer of 23 nL compound or DMSO vehicle by a pin tool (Kalypsys). The plates were incubated for 16 hr at 37 C and 5% CO2, followed by the addition of 5 uL of ONE-GloTM luciferase reagent (Promega) into each well using FRD. After 30 min room temperature incubation, plates were read on a ViewLux plate reader (PerkinElmer).
# Potency is read from the fitted curve at half-maximal effect; tags tell the direction and shape of the fitted curve.
row,Compound,Potency
1,c1ccc2cc3c(ccc4ccccc43)cc2c1,active: 30.6 µM
2,CC1=C(C(=O)Nc2ccccc2)S(=O)(=O)CCO1,"inconclusive: 61.1 µM [activator, partial curve, poor fit]"
3,Fc1ccc(Oc2ccnc3cc(Cl)cc(Cl)c23)cc1,active: 34.4 µM
4,O=[N+]([O-])c1ccc(Oc2ccc(Cl)cc2Cl)cc1,"inconclusive: 61.1 µM [activator, partial curve, poor fit]"
5,Cc1ccc2c(c1N)C(=O)c1ccccc1C2=O,"inconclusive: 1.19 µM [activator, full curve, poor fit] and inconclusive: 3.86 µM [activator, full curve, poor fit]"
6,CC(C)(C)C(=O)[C@H](Oc1ccc(Cl)cc1)n1cncn1,inactive
7,CCC[CH2][Sn]([CH2]CCC)([CH2]CCC)[O]C(=O)c1ccccc1,"inconclusive: 1.72 µM [activator, partial curve]"
8,Oc1ccccc1Cl,inactive
9,O=C(NC(=O)c1c(F)cccc1F)Nc1cc(Cl)c(OC(F)(F)C(F)C(F)(F)F)c(Cl)c1F (stereo not given),"inconclusive: 68.6 µM [activator, partial curve, poor fit]"
10,Clc1nc(Cl)nc(Nc2ccccc2Cl)n1,"inconclusive: 23.7 µM [activator, partial curve, poor fit] and inconclusive: 25.7 µM [activator, partial curve, poor fit]"
11,CCN(CC)N=O,inactive
12,Cc1cc(C)nc(Nc2ccccc2)n1,"inconclusive: 54.5 µM [activator, partial curve, poor fit]"
13,COP(=O)(OC)Oc1nc(Cl)c(Cl)cc1Cl,inactive
14,CNP(=O)(OC)Oc1ccc(C(C)(C)C)cc1Cl (stereo not given),"inconclusive: 17.2 µM [activator, full curve, poor fit]"
15,COC[C@H](C)N(C(=O)CCl)c1c(C)csc1C,"inconclusive: 54.5 µM [activator, partial curve, poor fit]"
16,Cc1cc(C2CC2)nc(Nc2ccccc2)n1,"inconclusive: 27.3 µM [activator, partial curve, poor fit]"
17,Clc1cccc(Cl)c1Cl,inactive
18,CCOP(=O)(OCC)OC(Cl)C(Cl)(Cl)Cl (stereo not given),inactive
19,COC(=O)c1ccccc1S(=O)(=O)NC(=O)N(C)c1nc(C)nc(OC)n1,inactive
20,CC(C)OC(=O)Nc1ccccc1,"inconclusive: 54.5 µM [activator, partial curve, poor fit]"

row,Compound,Potency
1,O=C(O)C(F)(F)C(F)(F)C(F)(F)C(F)(F)C(F)(F)C(F)(F)C(F)(F)C(F)(F)C(F)(F)F,inactive
2,Cc1ccn2nc(S(=O)(=O)Nc3c(F)cccc3F)nc2n1,inactive
3,c1ccc2c(c1)c1cccc3ccc4cccc2c4c31,"inconclusive: 27.3 µM [activator, partial curve, poor fit]"
4,CCOC(=O)[C@H](C)Oc1ccc(Oc2nc3ccc(Cl)cc3o2)cc1,"inconclusive: 61.1 µM [activator, partial curve, poor fit]"
5,ClC(Cl)C(Cl)Cl,inactive
6,[Cl][Sn]([c]1ccccc1)([c]1ccccc1)[c]1ccccc1,active: 0.486 µM
7,CC1CCCCC1NC(=O)Nc1ccccc1 (stereo not given),"inconclusive: 48.6 µM [activator, partial curve, poor fit]"
8,CCNCC,inactive
9,Oc1ccc(C(c2ccc(O)cc2)(C(F)(F)F)C(F)(F)F)cc1,inactive
10,C[N+]1(C)CCCCC1,inactive
11,Nc1ccc(-c2ccc(N)cc2)cc1,inactive
12,COP(=S)(OC)Oc1c(Cl)cc(C)cc1Cl,inactive
13,c1ccc(Nc2cccc3ccccc23)cc1,"inconclusive: 16.8 µM [activator, partial curve, poor fit] and inconclusive: 24.3 µM [activator, full curve, poor fit]"
14,CC(=O)[O-].CC(=O)[O-].O.O.O.[Pb+2],"inconclusive: 1.68 µM [activator, full curve, poor fit]"
15,CCSC(=O)Cl,inactive
16,CCNc1nc(Cl)nc(NC(C)(C)C#N)n1,"inconclusive: 24.3 µM [activator, full curve, poor fit]"
17,CCCCCCCCCCCCN(C)C,inactive
18,CC1(C)CON(Cc2ccccc2Cl)C1=O,"inconclusive: 68.6 µM [activator, partial curve, poor fit]"
19,CC(C)(C)OOC(C)(C)CCC(C)(C)OOC(C)(C)C,inactive
20,CCC[CH2][Sn]([CH2]CCC)([O]C(C)=O)[O]C(C)=O,"inconclusive: 54.5 µM [activator, partial curve, poor fit]"
